Results taken from PubChem BioAssay AID1671189 (National Center for Advancing Translational Sciences (NCATS), 2021).
In all, about 1,100 compounds went through this assay and about 70 (6%) were called active. Roughly 22% stayed inconclusive and do not appear here. Calls come from the whole dose curve; as a rule, active = well fitted curve in the direction sought with a large enough effect; inconclusive = small, poorly fitted or top-dose-only effect, or another doubt; inactive = no such curve, though single readings can be large or run the other way. The list shows a part of the results.

The compounds below were run against Polyunsaturated fatty acid lipoxygenase ALOX12 (Homo sapiens) (UniProt P18054) (assay: Confirmatory qHTS assay for inhibitors of human arachidonate 12S-lipoxygenase (ALOX12): Round 2). Conditions: purified human 12-LOX, xylenol orange absorbance; series mostly up to 125 µM; activity change, negative = inhibition: at the top concentration.
Sequence of UniProt P18054 (P18054 whole entry, looked up): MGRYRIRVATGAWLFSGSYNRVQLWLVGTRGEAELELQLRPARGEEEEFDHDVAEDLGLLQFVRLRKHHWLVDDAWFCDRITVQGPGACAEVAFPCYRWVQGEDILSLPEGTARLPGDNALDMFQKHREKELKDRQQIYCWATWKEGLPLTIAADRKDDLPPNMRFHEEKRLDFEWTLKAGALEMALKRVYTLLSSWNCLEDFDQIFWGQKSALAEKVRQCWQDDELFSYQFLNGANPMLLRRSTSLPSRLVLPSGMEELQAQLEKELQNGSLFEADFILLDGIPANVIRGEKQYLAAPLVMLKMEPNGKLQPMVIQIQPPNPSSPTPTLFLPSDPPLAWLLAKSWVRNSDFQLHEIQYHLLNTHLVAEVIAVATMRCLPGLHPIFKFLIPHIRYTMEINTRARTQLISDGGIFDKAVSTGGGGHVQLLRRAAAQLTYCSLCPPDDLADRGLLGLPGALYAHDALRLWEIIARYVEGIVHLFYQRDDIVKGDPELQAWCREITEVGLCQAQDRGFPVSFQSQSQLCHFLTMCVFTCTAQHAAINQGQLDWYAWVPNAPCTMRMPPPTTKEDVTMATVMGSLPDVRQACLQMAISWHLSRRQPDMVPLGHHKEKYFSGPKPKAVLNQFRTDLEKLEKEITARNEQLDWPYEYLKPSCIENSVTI
Outline: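 Activity was measured as hydroperoxide formation via ferrous/xylenol orange, taking the 573 nm to 405 nm absorbance ratio. Reaction: 40 uM arachidonic acid, 30 min at room temperature, after 15 min compound preincubation with 150 nM enzyme, pH 7.0 Hepes buffer.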
% is set by controls: 0 for no effect and ±100 for the full control effect; potency is the fitted concentration of half-maximal effect.

Compound | activity change, negative = inhibition | Potency
N#Cc1ccc(CN2CC(Oc3ccc(F)cc3F)C2)cc1 | inactive: -10% | 
CN1CC(=O)N(c2cccc(F)c2)Cc2c1ncnc2N1CCC(F)CC1 | inactive: -13.3% | 
COc1cccc([S+](=O)([O-])N2CCCC3(CC(c4cccnc4)=NO3)C2)c1 (centres undefined) | inactive: -9.13% | 
CN(C)CCCC(=O)N1Cc2ccccc2CC2(CCCCN2CC2CCNCC2)C1 (centres undefined) | inactive: -14.8% | 
Cc1ccc(CN2CCc3oc(C)c(C(=O)N4CCSCC4)c3C2)cc1 | inactive: -4.93% [at 64.5 µM] | 
O=C(c1cn2c(n1)CN([S+](=O)([O-])c1cccc(C(F)(F)F)c1)CC2)N1CCOCC1 | inactive: 5.83% | 
CCC(=O)N1Cc2ccccc2CC2(CCCN(CC3CCNCC3)C2)C1 (centres undefined) | inactive: -7.83% | 
C[C@H]1c2cccc(O)c2C(O)=C2C(=O)[C@]3(O)C(O)=C(C(N)=O)C(=O)[C@@H](N(C)C)[C@@H]3[C@@H](O)[C@@H]21 | inactive: -8.35% | 
CCOC(=O)N1CCC(NC)CC1 | inactive: 6.82% | 
O=C1Nc2ccccc2CN(CC2CCCCC2)C12CCNCC2 |  | active: 49.4 µM
NCc1ccccc1-c1ccc(O)cc1 | inactive: -3.22% | 
O=C(N1CCOCC1)N1CCn2c(nnc2-c2cncc(Br)c2)C1 | inactive: -22% | 
NCCCC(=O)N1CCC2(CC1)CC(NC(=O)CN)c1ccccc12 (centres undefined) | inactive: -1.81% | 
COc1ccc(CCNc2ncnc3c2CN(C2CCCNC2)C(=O)CN3C)cc1 (centres undefined) | inactive: -9.89% | 
O=C(Cn1ccc(=O)[nH]c1=O)N1C[C@H]2CC[C@@H]1CN(Cc1cscn1)C2 | inactive: -1.78% [at 64.5 µM] | 
CNC1CCCc2ccccc21 (centres undefined) | inactive: -13.2% [at 233 µM] | 
CN1CC(=O)N(C2CCNCC2)Cc2c(NCCc3cccc(F)c3)ncnc21 | inactive: -18.2% | 
CN1CCC(C(=O)N2Cc3ccccc3OC3(CCN(C(=O)N(C)C)CC3)C2)CC1 | inactive: -22.8% | 
COc1ccc(C(=O)N2CCOC3(CCN(C(=O)CCN)CC3)C2)cc1 | inactive: 8.03% | 
CC[C@@H](Nc1ncnc2c1CN(C1CCNCC1)C(=O)CN2C)c1ccccc1 | inactive: -21.4% | 
O=C(c1ccc(C(F)(F)F)cc1)N1CCc2nc(C3CC3)nc(-c3ccc(Cl)cc3)c2C1 | inactive: -19.2% | 
COc1ccc(-c2cnc([C@@H]3COCCN3C3CCN(C(C)=O)CC3)[nH]2)cc1 | inactive: -0.777% [at 64.5 µM] | 
C=CCNC(=O)[C@@H]1Cc2cn(CC#CC)c3cccc(c23)[C@H](CC(C)C)N1 | inactive: 24% [at 64.5 µM] | 
CCc1nc2c(c(-c3ccc(OC)cc3)n1)CCN(Cc1ccc(OC)cc1)CC2 | inactive: -27.7% | 
CC(=O)N1CCCN(c2ncnc3c2CN(C2CCNCC2)C(=O)CN3C)CC1 | inactive: -15.8% | 
CN1CC(=O)N(C2CCCNCC2)Cc2c1ncnc2N1CCC(C#N)CC1 (centres undefined) | inactive: -16.1% | 
O=C(O)c1cccc(-c2cnc3ccccc3c2)c1 | inactive: -20.4% | 

Compound | activity change, negative = inhibition | Potency
O=C(NC1CCCCC1)O[C@@H]1CO[C@H]2[C@@H]1OC[C@@H]2n1nnnc1SCc1ccco1 |  | active: 7.08 µM
Cc1ccc(CN2CCCC3(Cc4ccccc4CNC3=O)C2)cc1 (centres undefined) | inactive: -14.8% | 
COc1ccc(-c2cc(C(=O)NC3CCNCC3)c3c(C4CCCN4)noc3n2)cc1 (centres undefined) | inactive: -12.7% | 
Cc1cc(C)cc(CN2CCC3(Cc4ccccc4CNC3=O)C2)c1 (centres undefined) | inactive: -13.7% | 
O=Cc1ccc(-c2ccc(C(=O)O)cn2)cc1 | inactive: -24% | 
COc1ccc(-n2cc(-c3ccnc(N(C)Cc4cnccn4)n3)cn2)cc1 | inactive: 15.4% [at 64.5 µM] | 
CN1CC(=O)N(C2CCNC2)Cc2c(NC3CCCC3)ncnc21 (centres undefined) | inactive: -20.8% | 
COc1cccc(N2C(=O)NC(=NC3CCCC3)C23CCCN([S+](=O)([O-])c2ccccc2)C3)c1 (centres undefined) | inactive: -19.6% | 
O=C(Nc1ccc(F)cc1)c1c[nH]c2cccnc12 | inactive: -7.09% | 
CC(=O)NCCCC(=O)N1CCOC2(CCN(C(=O)CCCN)CC2)C1 | inactive: -25.7% | 
O=c1cc(N2CCOCC2)oc2c(Nc3ccccc3)nccc12 | inactive: -19.7% [at 64.5 µM] | 
CN1CC(=O)N(C2CCCNCC2)Cc2c1ncnc2N1CCN(Cc2ccccc2)CC1 (centres undefined) | inactive: -10.1% | 
O=C1NCc2ccccc2CC12CCN(Cc1cc(O)cc(O)c1)C2 (centres undefined) | inactive: -15% | 
COc1ccc(CNc2ncnc3c2CN(C2CCCNCC2)C(=O)CN3C)cc1 (centres undefined) | inactive: -4.88% | 
CC(=O)NCC1(COc2cnccn2)C[C@@H](O)[C@@H](O)C1 (some centres undefined) | inactive: -1.32% | 
CN1C(=O)[C@@H]2C[C@@H](CN2C2CCCC2)Oc2ccccc21 | inactive: 14.6% | 
NCc1cccc(-c2cncnc2)c1 | inactive: -4.13% | 
O=C(NC1CCCCC1)N[C@H]1CCN2C(=O)c3ccccc3NC(=O)[C@H]12 | inactive: -0.661% [at 64.5 µM] | 
CCC(=O)N1Cc2ccccc2CC2(CCCCN2CC2CCNC2)C1 (centres undefined) | inactive: -4.6% | 
CC(=O)N1CCCC2(CC(c3ccccn3)=NO2)C1 (centres undefined) | inactive: -12% [at 233 µM] | 
CN(c1ccccc1)c1ccc2nnc(-c3cc(C(=O)NCc4cccnc4)ccn3)n2n1 | inactive: 4.47% [at 64.5 µM] | 
O=C(Nc1ccccc1)O[C@@H]1CO[C@H]2[C@@H]1OC[C@@H]2n1nnnc1SCc1ccco1 | inactive: -10.7% [at 64.5 µM] | 
CCCCCNc1ncnc2c1CN(C1CCNCC1)C(=O)CN2C | inactive: -9.78% | 
COc1ccnc(N2CCN(CC3(O)CNCCOC3)CC2)n1 (centres undefined) | inactive: -16.3% [at 64.5 µM] | 
O=C(OCc1ccc(CSc2nnc(-c3cccc4ccccc34)o2)cc1)c1ccc(F)cc1 | inactive: 7.62% [at 64.5 µM] | 
O=C1NCc2ccccc2CC12CCN(Cc1ccccc1F)C2 (centres undefined) | inactive: -20.1% | 
CC1CCCN1c1ncnc2c1CN(C1CCCNCC1)C(=O)CN2C (centres undefined) | inactive: -18.8% | 
